This sample is rich in variants without activity.
B1: tRNA (parent)
chain: CUCUCGGUAGCCAAGUUGGUUUAAGGCGCAAGACUUUAAUUUAUCACUACGAAAUCUUGAGAUCGGGCGUUCGACUCGCCCCCGGGAGAUUUUUUCCUCGAGCAA

Variants of: B1
Experiment: nonsense suppression (GFP-seq) (ratio to wild type); higher = more function; SUP4oc tRNA, yeast GFP reporter sort-seq
Procedure, shortened: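 Raffinose/galactose medium with 80 mg/L adenine was used to grow yeast carrying genome-integrated tRNA variants (~3% random-mutation library), RFP, and a galactose-driven GFP ochre reporter. Cells went into GFP/RFP bins, which were Illumina-sequenced, and variants with ≥100 reads and ≥30 cells were scored. Nonsense suppression (GFPSEQ) is the per-bin median GFP/RFP weighted by estimated cell share and expressed relative to the unmutated parent tRNA.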

C64U G78C and G66U G69A G84C cannot be ordered by nonsense suppression: no more than 0.026 for the first, no more than 0.026 for the second.

G66C A87G and C64A G69A cannot be ordered by nonsense suppression: no more than 0.026 for the first, no more than 0.026 for the second.

First: U63G G73U
Second: U63G G73A
The nonsense suppression of the first is lower: no more than 0.026 for the first, 0.189 for the second.

First: C64A U70A
Second: A62G C75A
The nonsense suppression of the first is lower: no more than 0.026 for the first, 0.219 for the second.

U63G C64U G85A and G67C C77A cannot be ordered by nonsense suppression: no more than 0.026 for the first, no more than 0.026 for the second.

U63A G67C G78U and C64U A87G cannot be ordered by nonsense suppression: no more than 0.026 for the first, no more than 0.026 for the second.

G66C U70G and G66C U70C cannot be ordered by nonsense suppression: no more than 0.026 for the first, no more than 0.026 for the second.

G67C U76A C82A and G67C G88C cannot be ordered by nonsense suppression: no more than 0.026 for the first, no more than 0.026 for the second.

G67C U76G and G66C G78C cannot be ordered by nonsense suppression: no more than 0.026 for the first, no more than 0.026 for the second.

First: G66C G78A
Second: G61U G67U
The nonsense suppression of the first is higher: 0.0452 for the first, no more than 0.026 for the second.

First: G61U G67A
Second: A62G C83A
The nonsense suppression of the first is higher: 0.135 for the first, no more than 0.026 for the second.

U63A U71C and G65C G69C cannot be ordered by nonsense suppression: no more than 0.026 for the first, no more than 0.026 for the second.

G65C G69U and A62G U70C A74C cannot be ordered by nonsense suppression: no more than 0.026 for the first, no more than 0.026 for the second.

C64U A74U and G66A C77G cannot be ordered by nonsense suppression: no more than 0.026 for the first, no more than 0.026 for the second.

G66A C77U and C64G G67A G78A cannot be ordered by nonsense suppression: no more than 0.026 for the first, no more than 0.026 for the second.

A62U C72G C77G and A62C U63A C68A C75A C80U cannot be ordered by nonsense suppression: no more than 0.026 for the first, no more than 0.026 for the second.

G65A G85A and G67A G73U C79U cannot be ordered by nonsense suppression: no more than 0.026 for the first, no more than 0.026 for the second.

A62G U70C and G67C G84A cannot be ordered by nonsense suppression: no more than 0.026 for the first, no more than 0.026 for the second.

Compared with G67A C68G, G61C G88U is higher in nonsense suppression: no more than 0.026 for the first, 0.0792 for the second.

First: U63C C81U
Second: C64U G84U
The nonsense suppression of the first is higher: 0.142 for the first, no more than 0.026 for the second.

A62G C79G G84C A87U and G67U C82A cannot be ordered by nonsense suppression: no more than 0.026 for the first, no more than 0.026 for the second.

U63C G67C U70A and A62C U71C A87G cannot be ordered by nonsense suppression: no more than 0.026 for the first, no more than 0.026 for the second.

U63C U70A and G65C A74G cannot be ordered by nonsense suppression: no more than 0.026 for the first, no more than 0.026 for the second.

G61U C68G U70C and A62C U70A A74U G85U cannot be ordered by nonsense suppression: no more than 0.026 for the first, no more than 0.026 for the second.

G66U G86C and U63A U71C G78A cannot be ordered by nonsense suppression: no more than 0.026 for the first, no more than 0.026 for the second.

G66A U76A and U63G C81A cannot be ordered by nonsense suppression: no more than 0.026 for the first, no more than 0.026 for the second.

U63G C81G and A62G C82A cannot be ordered by nonsense suppression: no more than 0.026 for the first, no more than 0.026 for the second.

Compared with G61U C75U G85A, C64U C82U C83G is lower in nonsense suppression: 1.04 for the first, no more than 0.026 for the second.

Going from A62G U76A to U63G A89G, the nonsense suppression rises from no more than 0.026 to 0.0674.

C64U G65C and A62U G65A C80G cannot be ordered by nonsense suppression: no more than 0.026 for the first, no more than 0.026 for the second.

C64G C75G and C64G C75A cannot be ordered by nonsense suppression: no more than 0.026 for the first, no more than 0.026 for the second.

G65A G66A and G67A U70G U76G cannot be ordered by nonsense suppression: no more than 0.026 for the first, no more than 0.026 for the second.

C64A G85C and G61U C68A cannot be ordered by nonsense suppression: no more than 0.026 for the first, no more than 0.026 for the second.

C64A C68G G73U and G65C G66A C81U cannot be ordered by nonsense suppression: no more than 0.026 for the first, no more than 0.026 for the second.

G66C U71C and U63C U76C G84C cannot be ordered by nonsense suppression: no more than 0.026 for the first, no more than 0.026 for the second.

A62U G67A and A62U U76G cannot be ordered by nonsense suppression: no more than 0.026 for the first, no more than 0.026 for the second.

G66A C79G C83G and A62G C72G A87C cannot be ordered by nonsense suppression: no more than 0.026 for the first, no more than 0.026 for the second.

Compared with U63G U71C, A62U G86A is lower in nonsense suppression: 0.028 for the first, no more than 0.026 for the second.

G67U C83G and G67A C77A C82G cannot be ordered by nonsense suppression: no more than 0.026 for the first, no more than 0.026 for the second.

A62G C80U A89G and U63A G67C G86C cannot be ordered by nonsense suppression: no more than 0.026 for the first, no more than 0.026 for the second.

G61C U71C C72U and C64U C68G cannot be ordered by nonsense suppression: no more than 0.026 for the first, no more than 0.026 for the second.

G66A G69C and A62G G67A cannot be ordered by nonsense suppression: no more than 0.026 for the first, no more than 0.026 for the second.

C64U G88A and U63G C77G cannot be ordered by nonsense suppression: no more than 0.026 for the first, no more than 0.026 for the second.

U63C G73A G78U A89G and G65U G69U cannot be ordered by nonsense suppression: no more than 0.026 for the first, no more than 0.026 for the second.

Going from U63C C75A to G67U C80A, the nonsense suppression falls from 1.04 to no more than 0.026.

C64G U76A and C64A G66A U71G cannot be ordered by nonsense suppression: no more than 0.026 for the first, no more than 0.026 for the second.

U63C G73A A74G and G65U G85U cannot be ordered by nonsense suppression: no more than 0.026 for the first, no more than 0.026 for the second.

C64A G65A C68G C81U and U63A G65A G66A cannot be ordered by nonsense suppression: no more than 0.026 for the first, no more than 0.026 for the second.

G66A G88A and G66C C68A G69C cannot be ordered by nonsense suppression: no more than 0.026 for the first, no more than 0.026 for the second.

Compared with A62C C72A, U63G G84C is higher in nonsense suppression: no more than 0.026 for the first, 0.0283 for the second.

A62C G66C C68U and G67U C81G cannot be ordered by nonsense suppression: no more than 0.026 for the first, no more than 0.026 for the second.

G67U C81U and A62G G69C U76G G86A cannot be ordered by nonsense suppression: no more than 0.026 for the first, no more than 0.026 for the second.

A62G C80U and U63C C77G G88A cannot be ordered by nonsense suppression: no more than 0.026 for the first, no more than 0.026 for the second.

C64U U71G and G67U A74G cannot be ordered by nonsense suppression: no more than 0.026 for the first, no more than 0.026 for the second.

U63A G66C G73C and A62C G88C cannot be ordered by nonsense suppression: no more than 0.026 for the first, no more than 0.026 for the second.

Compared with G61C G84U, G65A C75A is lower in nonsense suppression: 0.199 for the first, 0.109 for the second.

G65A C75G and G67U U70G C82A cannot be ordered by nonsense suppression: no more than 0.026 for the first, no more than 0.026 for the second.

G65A A74C and G67A A87U cannot be ordered by nonsense suppression: no more than 0.026 for the first, no more than 0.026 for the second.

U63C G69A and G67A G88U cannot be ordered by nonsense suppression: no more than 0.026 for the first, no more than 0.026 for the second.

G67A U71C A89C and G67A C82G cannot be ordered by nonsense suppression: no more than 0.026 for the first, no more than 0.026 for the second.

G67A C82U and A62U G73A cannot be ordered by nonsense suppression: no more than 0.026 for the first, no more than 0.026 for the second.

Compared with G61U, G61C G78A C80G is lower in nonsense suppression: 1.03 for the first, no more than 0.026 for the second.

G67A G86A and G66A A87G cannot be ordered by nonsense suppression: no more than 0.026 for the first, no more than 0.026 for the second.

G66U U71A and C64A C83G A87G cannot be ordered by nonsense suppression: no more than 0.026 for the first, no more than 0.026 for the second.

G61U U71C A87U and A62C U63A cannot be ordered by nonsense suppression: no more than 0.026 for the first, no more than 0.026 for the second.

G65C A89U and G67U U70A G73A A74C C81A cannot be ordered by nonsense suppression: no more than 0.026 for the first, no more than 0.026 for the second.

C64G C68A and G66C G69C G73C G84C cannot be ordered by nonsense suppression: no more than 0.026 for the first, no more than 0.026 for the second.

Going from G65C G69C C75U to G61U C80U, the nonsense suppression rises from no more than 0.026 to 0.677.

C64G G85C and C64G G85U cannot be ordered by nonsense suppression: no more than 0.026 for the first, no more than 0.026 for the second.

C64A A74U and U63A G69U U76C G84U cannot be ordered by nonsense suppression: no more than 0.026 for the first, no more than 0.026 for the second.

Compared with A62G C72U G84C G88U A89U, G61C U63C is higher in nonsense suppression: no more than 0.026 for the first, 0.196 for the second.

Compared with G61C U63G, U63G C72U is lower in nonsense suppression: 0.12 for the first, 0.0334 for the second.

U63A U71A G84U A89U and A62U G65C A89G cannot be ordered by nonsense suppression: no more than 0.026 for the first, no more than 0.026 for the second.

G66A C75A C80A and U63C A89G cannot be ordered by nonsense suppression: no more than 0.026 for the first, no more than 0.026 for the second.

G61C U71C G86C and U63A A89C cannot be ordered by nonsense suppression: no more than 0.026 for the first, no more than 0.026 for the second.

U63A A89G and U63G G66C cannot be ordered by nonsense suppression: no more than 0.026 for the first, no more than 0.026 for the second.

U63G G66U and G65C U71C cannot be ordered by nonsense suppression: no more than 0.026 for the first, no more than 0.026 for the second.

A62C C64U and G61U U71C cannot be ordered by nonsense suppression: no more than 0.026 for the first, no more than 0.026 for the second.

Compared with U63C A74G, C64A C81G is lower in nonsense suppression: 0.0264 for the first, no more than 0.026 for the second.

Going from A62G C75U C83A to U63A, the nonsense suppression rises from no more than 0.026 to 1.05.

First: U63G
Second: U63C
The nonsense suppression of the first is higher: 1.14 for the first, 1.05 for the second.

A62C C77A and U63C C64U cannot be ordered by nonsense suppression: no more than 0.026 for the first, no more than 0.026 for the second.

U63C G66U C72A C82U and G67C C82U cannot be ordered by nonsense suppression: no more than 0.026 for the first, no more than 0.026 for the second.

U63C U71A showed a nonsense suppression of no more than 0.026.
